Measurements reported in PubChem BioAssay AID624417 (National Center for Advancing Translational Sciences (NCATS), 2012).
Hit rate of the full screen: of about 410,000 compounds, about 6,400 (1.6%) were called active. The inconclusive results got no clear call from the source; some entries with a clear call stand among them for comparison. The call rests on the fitted dose curve; in most records, active means well fitted inhibition curve with a large enough effect; inconclusive means small, poorly fitted or top-dose-only effect; inactive means no such curve, though single readings can be large or run the other way. Potencies of inconclusive entries are left out as doubtful fits.

target: Glucagon-like peptide 1 receptor (Homo sapiens) (UniProt P43220); assay: qHTS of GLP-1 Receptor Inverse Agonists (Inhibition Mode); settings: HEK293 GLP-1R CRE-luciferase, luminescence, 24 h, GLP-1R form is constitutively active; activity change, negative = inhibition: at 38.3 µM (top of the series) unless noted; further: nearly all actives have a fitted effect of over 55% in size
Sequence of UniProt P43220 (P43220 whole entry, looked up): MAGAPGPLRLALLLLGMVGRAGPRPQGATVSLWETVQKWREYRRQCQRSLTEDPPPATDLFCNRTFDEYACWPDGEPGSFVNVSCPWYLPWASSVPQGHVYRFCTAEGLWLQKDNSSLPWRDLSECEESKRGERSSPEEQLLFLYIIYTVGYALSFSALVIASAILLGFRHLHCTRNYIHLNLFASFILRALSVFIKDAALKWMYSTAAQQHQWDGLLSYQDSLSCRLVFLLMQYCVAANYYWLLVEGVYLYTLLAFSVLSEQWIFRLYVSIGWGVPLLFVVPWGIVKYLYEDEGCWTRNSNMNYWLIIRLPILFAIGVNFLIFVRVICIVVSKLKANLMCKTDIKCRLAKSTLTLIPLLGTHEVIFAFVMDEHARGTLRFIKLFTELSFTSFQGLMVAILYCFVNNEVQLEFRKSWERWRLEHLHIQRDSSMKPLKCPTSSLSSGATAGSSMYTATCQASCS
Outline: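 Using stably transfected HEK293 (constitutively active GLP-1R, cAMP-luciferase reporter), compounds were incubated 24 hr and luciferase measured by luminescence.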
On the % scale 0 is the no-effect control and ±100 the full control effect; potency means the concentration at half of the fitted maximal effect; tags describe the fitted curve by direction and shape.

Compound	Potency	activity change, negative = inhibition
CCC1=Nc2cc(C(=O)NCC(C)c3ccccc3)ccc2Sc2ccc(C)cc21 (stereo not given)	active: 5.01 µM	
O=C(NCc1ccco1)c1ccccc1NS(=O)(=O)c1ccc2c(c1)OCCO2		inactive: 25.1%
CCN(CC)S(=O)(=O)c1cc(NC(=O)C2CC(=O)N(Cc3ccccc3)C2)ccc1Cl (stereo not given)	active: 10 µM	
COc1ccc(F)cc1C(=O)C1CCCN(C(=O)c2ccccc2N(C)C)C1 (stereo not given)	inconclusive [inhibitor, full curve, poor fit]	
CN(Cc1ccc(OCC(O)CN(C)Cc2ccccc2)cc1)Cc1nccn1C (stereo not given)	inconclusive [inhibitor, partial curve, poor fit]	
CC(C)Oc1ccc(CN2CCC2(C)C(=O)Nc2cccc(Oc3ccccc3)c2)cc1 (stereo not given)	inconclusive [inhibitor, full curve]	
COC(=O)c1cc2c(ccn2-c2ccc(F)cc2)n1Cc1ccc(OC(C)=O)cc1	inconclusive [inhibitor, single point]	
COC(=O)c1ccc2nc(-c3ccc(F)cc3)c(Cc3cccc(Cl)c3)n2c1	inconclusive [inhibitor, single point]	
Cc1ccc(OCC(=O)NCC(c2ccc(Cl)cc2)N2CCCCC2)cc1 (stereo not given)	inconclusive [inhibitor, single point]	
Cn1c(-c2sccc2OCc2ccc(Cl)cc2Cl)n[nH]c1=S	inconclusive [inhibitor, single point]	
CCN(CC(=O)NCc1ccc(Cl)cc1)C(=O)CCc1ccccc1O	inconclusive [inhibitor, partial curve, poor fit]	
CCN(c1ccc(C)cc1)S(=O)(=O)c1nnc(NC(=O)C2CCCCC2)s1		inactive: -0.713%
CC1CCN(CCCNC(=O)C2CCC(CNS(=O)(=O)c3cccc4nsnc34)CC2)CC1 (stereo not given)	inconclusive [inhibitor, single point]	
Cc1ccc(NS(=O)(=O)c2ccc(C(=O)N3CCN(c4ccccn4)CC3)cc2)cc1	inconclusive [inhibitor, full curve, poor fit]	
O=C(NCCCc1ccc(F)cc1)C1CCC(=O)N(CC2CCCCC2)C1 (stereo not given)	inconclusive [inhibitor, partial curve, poor fit]	
Nc1ccc(C(=O)N/N=C/c2cn(Cc3ccc(F)cc3)c3ccccc23)cc1	inconclusive [inhibitor, partial curve, poor fit]	
CCC(=O)Nc1ccc(-c2ccc(N3CCCCC3)nn2)cc1	inconclusive [inhibitor, single point]	
COc1ccc(-c2cc(C(F)(F)F)n3nc(C(=O)NCCCn4ccnc4)cc3n2)cc1	inconclusive [inhibitor, partial curve, poor fit]	
CCCCC(=O)NN(C)c1nc(-c2ccccc2)nnc1C(F)(F)F	inconclusive [inhibitor, partial curve, poor fit]	
OCC1(Cc2ccc(Cl)cc2)CCN(CCCc2ccccc2)CC1	inconclusive [inhibitor, partial curve, poor fit]	

Compound	Potency	activity change, negative = inhibition
C#CCOCCOCCOCCNc1nc(N2CCN(C(=O)Cn3cc(CCCN=C(N)N)nn3)CC2)nc(N2CCN(C(=O)[C@H]([C@@H](C)O)n3cc(CCCCN)nn3)CC2)n1		inactive: 19.6%
COc1ccc(NC(=O)N2CCc3c(sc4c3CCCC4)C2c2ccccc2OC)cc1 (stereo not given)		inactive: 14.9%
CC(C)(C)C(=O)Nc1nnc(CCc2ccccc2)s1	inconclusive [inhibitor, single point]	
COc1ccccc1C(CNC(=O)CN(C)S(=O)(=O)c1ccc(C)cc1)N1CCCC1 (stereo not given)		inactive: -19.6%
COc1cccc(NC2c3ccccc3C(=O)N2Cc2ccccc2Cl)c1 (stereo not given)	inconclusive [inhibitor, partial curve, poor fit]	
COc1ccc(/C=C(\CC(=O)O)c2nc3ccccc3o2)cc1		inactive: 8.17%
CN(CCc1ccccc1)C1CCCN(S(=O)(=O)c2cccc(F)c2)C1 (stereo not given)	inconclusive [inhibitor, partial curve, poor fit]	
CC1(C)Cc2c(C#N)c(N3CCN(C(=O)c4ccccc4Cl)CC3)nc(-c3ccco3)c2CS1	inconclusive [inhibitor, single point]	
Cc1ccc(C(=O)Nc2cnc3ccccc3c2)cc1	inconclusive [inhibitor, full curve, poor fit]	
CCOc1ccc(-c2n[nH]c(C)c2Oc2ccccc2OC)c(O)c1	inconclusive [inhibitor, partial curve, poor fit]	
COCCN1CCN(Cc2cn(C)nc2-c2ccc(Oc3ccccc3)cc2)CC1		inactive: -39.1%
COc1ccc2cc(C=NS(=O)(=O)c3ccc(C)cc3)n(C)c2c1	inconclusive [inhibitor, partial curve, poor fit]	
Cc1cc(C(=O)CN2CCC(C)CC2)c(C)n1-c1ccccc1F	inconclusive [inhibitor, full curve, poor fit]	
Cc1ccc(Nc2nc(N)c([N+](=O)[O-])c(NCc3ccco3)n2)cc1C	inconclusive [inhibitor, single point]	
Cc1cc(C)cc(-c2nnc(SCC(=O)N3CCN(C(=O)c4ccco4)CC3)o2)c1		inactive: 0%
O=[N+]([O-])c1ccc(S(=O)(=O)Nc2nnc(C3CCCCC3)s2)cc1	inconclusive [inhibitor, single point]	
COc1cc(CNCCO)cc(Br)c1OCc1cccs1	inconclusive [inhibitor, partial curve, poor fit]	
COc1ccc2nc(NC(=O)c3nc(S(=O)(=O)Cc4ccccc4)ncc3Cl)sc2c1	inconclusive [inhibitor, single point]	
CCCCCCCCCCCCCCCC[n+]1ccc(C(N)=O)cc1	inconclusive [inhibitor, single point]	
Cc1ccc(NC(=O)CSc2n[nH]c(-c3ccc(F)cc3)n2)cc1F		inactive: -1.12%
